Results taken from PubChem BioAssay AID686978 (National Center for Advancing Translational Sciences (NCATS), 2013).
Hit rate of the full screen: of about 420,000 compounds, about 64,000 (15%) were called active. Inconclusive means that the source gave no clear call. Such entries were picked first, then a sample of the others. The call rests on the fitted dose curve; in most records, active means well fitted inhibition curve with a large enough effect; inconclusive means small, poorly fitted or top-dose-only effect; inactive means flat fitted curve, though single readings scatter. Potencies of inconclusive entries are left out as doubtful fits.

Experiment: qHTS for Inhibitors of human tyrosyl-DNA phosphodiesterase 1 (TDP1): qHTS in cells in absence of CPT; further: nearly all actives have a fitted effect of over 55% in size
Details: DT40 Tdp1-/- hTDP1 cells, no CPT, ATP luminescence, 48 h; series mostly up to 46.2 µM
Summary of the method: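 Chicken DT40 Tdp1-/- cells stably complemented with human TDP1 were seeded at 400 cells/well with DMSO in place of 20 nM camptothecin. After compound pinning, cells grew at least 48 hr at 37 °C; viability read by CellTiter-Glo luminescence.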
Potency means the concentration at half of the fitted maximal effect; tags describe the fitted curve by direction and shape.

| SMILES | Potency |
| --- | --- |
| COc1ccc(-c2noc(-c3csc([C@@H]4C[C@H](O)[C@@H](CO)O4)n3)n2)cc1OC | inconclusive [inhibitor, partial curve] |
| COC(=O)CCN1CCN(S(=O)(=O)c2ccccc2Br)CC1 | inactive |
| Cc1cccc(C2C3=C(CCCC3=O)N=C3c4ccccc4C(=O)C32)c1 (configuration not stated) | inconclusive [inhibitor, single point] |
| CCN(c1ccc(OC)cc1)c1ncnc2nc[nH]c12 | inconclusive [inhibitor, partial curve] |
| CCOc1ccc(CNn2cnnc2)cc1 | inconclusive [inhibitor, single point] |
| CN(CC(O)CON=C1c2ccccc2-c2ccccc21)S(=O)(=O)c1ccc(Br)cc1 (configuration not stated) | inconclusive [inhibitor, single point] |
| O=[N+]([O-])c1ccc(Nc2c3ccccc3nc3ccccc23)cc1 | inconclusive [inhibitor, single point] |
| COC(=O)c1c(NC(=O)Cc2ccc(OC)c(S(=O)(=O)N3CCOCC3)c2)sc(C)c1C | inconclusive [inhibitor, single point] |
| COc1cccc(-c2cncnc2Nc2ccc(F)cc2)c1 | inactive |
| COc1ccc(OC)c(N/C(C)=C/C(=O)c2ccccc2)c1 | inconclusive [inhibitor, single point] |
| Nc1ccc(S(=O)(=O)Nc2nccc(/C=C/c3ccc(Br)s3)n2)cc1 | inconclusive [inhibitor, single point] |
| CCOC(=O)C1=C(NC#N)OC(C)=C(C)C1c1ccc(O)cc1 (configuration not stated) | active: 20.6 µM |
| COCCNCC(O)CON=C1c2ccccc2-c2ccccc21 (configuration not stated) | inconclusive [inhibitor, single point] |
| CCOC(=O)c1ccc(NC(=O)c2ccc(CN3CCc4ccccc4C3)cc2)cc1 | inconclusive [inhibitor, single point] |
| Cc1ccc(-c2csc3ncnc(NS(=O)(=O)c4ccc(Cl)cc4)c23)cc1 | inactive |
| CCOc1ccc(S(=O)(=O)N2CCCCC2)cc1NC(=O)CN1C(=O)NC(CC)(c2ccccc2)C1=O (configuration not stated) | inconclusive [inhibitor, single point] |
| CSCCC(NC(=O)c1ccco1)C(=O)OCC(=O)N(Cc1ccccc1)C(C)(C)C (configuration not stated) | inconclusive [inhibitor, single point] |
| Clc1ccc(OCCOCCN2CCCCC2)c(Br)c1 | inactive |
| CSc1cccc(NC(=O)/C=C/c2cccc(Cl)c2)c1 | inconclusive [inhibitor, single point] |
| CCOc1ccc2ccccc2c1/C=N/NC(=O)c1ccc(C)nc1 | inconclusive [inhibitor, single point] |
| CCOc1ccc2nc(NC(=O)c3ccc(S(=O)(=O)N4CCOCC4)cc3)sc2c1 | inconclusive [inhibitor, single point] |
| CC(C)Cc1ccc([C@H](C)C(=O)O)cc1 | inactive |
| COc1cc(NC(=O)N2CCN(c3cc(-c4noc(C)n4)ccc3C)CC2)cc(OC)c1OC | inactive |
| COC(=O)c1cc2ccccc2n1S(=O)(=O)c1ccccc1 | inactive |

| SMILES | Potency |
| --- | --- |
| Cc1ccc(C(=O)N(CN2CCCC2=O)c2ccccc2)cc1 | inconclusive [inhibitor, single point] |
| COc1ccc(NC(=O)c2cc3cccc(OC)c3oc2=Nc2ccc(C(=O)O)cc2)cc1OC | active: 13 µM |
| CCOC(=O)C1(CCc2ccccc2)CCN(C(=O)C2=C(C)OCCO2)CC1 | inconclusive [inhibitor, partial curve] |
| COc1ccc(-c2nc(SCC(=O)NC3CCCCC3)n[nH]2)cc1 | inconclusive [inhibitor, partial curve] |
| CCS(=O)(=O)c1nc(S(=O)(=O)c2ccc(C)cc2)c(N2CCN(CCO)CC2)s1 | inactive |
| ClCc1nnc(-c2cc3c(s2)CCCC3)o1 | active: 16.4 µM |
| CCc1cc2c3c(c(=O)oc2cc1O)CCCC3 | inconclusive [inhibitor, partial curve] |
| COc1ccc(-c2ccc(=O)n(Cc3cc(=O)n4ccccc4n3)n2)cc1 | inconclusive [inhibitor, partial curve] |
| C=CCOC(=O)C1=C(C)N=C2SCCC(=O)N2C1/C=C/c1ccccc1 (configuration not stated) | inconclusive [inhibitor, single point] |
| O=C(COC(=O)c1cc([N+](=O)[O-])ccc1NCCO)Nc1cccc(S(=O)(=O)N2CCCC2)c1 | active: 13 µM |
| CCC(C)Nc1nc(-c2c[nH]c3ccccc23)cs1 (configuration not stated) | inconclusive [inhibitor, single point] |
| Cc1ccc(S(=O)(=O)N2CCN(C(=O)c3cc(=O)c4ccccc4o3)CC2)cc1 | inconclusive [inhibitor, single point] |
| Cc1cccnc1C(NC(=O)C1CCN(CCCOc2ccccc2)CC1)c1ccc(F)cc1 (configuration not stated) | inconclusive [inhibitor, single point] |
| O=C(Nc1cccnc1)Nc1ccc(Cl)cc1Cl | inconclusive [inhibitor, single point] |
| COc1cccc(NC(=O)Cc2csc(NC(=O)Nc3ccccc3OC)n2)c1 | inconclusive [inhibitor, single point] |
| CCOc1ccccc1NC(=O)N1CCN(S(=O)(=O)c2ccc3c(ccn3C)c2)CC1 | inactive |
| CNC(=S)N(Cc1cc2cc(C)ccc2n2nnnc12)CC(C)(C)CN(C)C | inactive |
| CCOC(=O)CN(C(=O)CSc1nnc2c(n1)[nH]c1ccc(OC)cc12)c1ccc(F)cc1 | inconclusive [inhibitor, single point] |
| O=C(O)CCCN1C(=O)C(=O)/C(=C(/O)c2ccccc2)C1/C=C/c1ccccc1 (configuration not stated) | inactive |
| CCN(c1ccc(C)cc1)S(=O)(=O)c1nnc(NC(=O)c2cccs2)s1 | inconclusive [inhibitor, single point] |
| COC(=O)c1scc(C)c1NC(=O)Cc1ccccc1 | inactive |
| CC(C)c1ccccc1NC(=O)CSc1nnc(COc2ccccc2Cl)o1 | inconclusive [inhibitor, partial curve] |
| O=C(NCCCl)Nc1cccnc1Cl | inconclusive [inhibitor, full curve] |
| CCN(CC(=O)NCc1ccc(Cl)cc1)C(=O)c1ccc2cc(OC)ccc2c1 | active: 13 µM |

| SMILES | Potency |
| --- | --- |
| O=C(C(Cl)Cl)N1CCN(Cc2ccccc2)CC1 | inconclusive [inhibitor, single point] |
| Cc1cccn2cc(CNS(=O)(=O)c3cccc(F)c3)nc12 | inconclusive [inhibitor, single point] |
| COc1ccc(S(=O)(=O)N(CC(=O)N/N=C/c2ccc(C(=O)O)cc2)Cc2ccccc2)cc1OC | inactive |
| CC(C)c1ccc(/C=C2\SC(=S)N(CC(=O)NCCCN3CCOCC3)C2=O)cc1 | inconclusive [inhibitor, single point] |
| C(=N\Nc1nnnn1-c1ccccc1)/c1ccncc1 | inconclusive [inhibitor, partial curve, poor fit] |
| CC(Oc1ccccc1)C(=O)N1CCC2(CC1)CC(=O)c1ccccc1O2 (configuration not stated) | inconclusive [inhibitor, single point] |
| COc1ccccc1-c1sc2ccccc2c1-c1ccccc1OC | inconclusive [inhibitor, single point] |
| Cc1cccc(CSc2nnc(C)c(=O)n2N)c1 | inactive |
| Cc1noc(C)c1C(=O)OCC(=O)Nc1ccc(S(N)(=O)=O)cc1 | inactive |
| Cc1ccc(C2=CC(C)(c3ccc(C)cc3)Nc3nc(C(F)(F)F)nn32)cc1 (configuration not stated) | inconclusive [inhibitor, single point] |
| O=S(=O)(NCC(c1ccco1)N1CCN(c2ccc(F)cc2)CC1)c1ccc(F)cc1 (configuration not stated) | inconclusive [inhibitor, single point] |
| NC(=O)c1cccc(-c2ccnc3c2CC(C(=O)Nc2ccc(Cl)cc2)O3)c1 (configuration not stated) | active: 13 µM |
| Cc1csc(SC(C)c2nc3scc(-c4ccccc4)c3c(=O)[nH]2)n1 (configuration not stated) | active: 20.6 µM |
| O=C(NCc1ccccn1)C1CC(c2ccccc2O)=NO1 (configuration not stated) | inactive |
| CC(=O)c1ccc(S(=O)(=O)Nc2ccc(-c3ccc4nncn4n3)cc2)cc1 | inactive |
| COc1ccc(CC(=O)N2CCN(c3ccc(F)cc3)CC2)cc1 | inconclusive [inhibitor, partial curve, poor fit] |
| O=C(CN1C(=O)S/C(=C\c2ccccc2F)C1=O)NC1C=CS(=O)(=O)C1 (configuration not stated) | inconclusive [inhibitor, single point] |
| CC(=O)Oc1cc(C(F)(F)F)ccc1C(=O)O | inactive |
| CCc1ccc(C2CC(c3ccc(C)cc3)n3nc(N)nc3N2)cc1 (configuration not stated) | inconclusive [inhibitor, partial curve] |
| N#CCCn1cc(/C=C2\NC(=S)N(c3ccccc3)C2=O)c(-c2ccc(F)cc2)n1 | inactive |
| CCOC(=O)c1ccc2[nH]c(C)c(CN3CCN(C)CC3)c(=O)c2c1 | inactive |
| COc1ccc(CN(C)C(=O)CNC(=O)c2ccc3ccccc3c2)c(OC)c1 | inconclusive [inhibitor, single point] |
| CN(Cc1cccc(F)c1)C(=O)CN1CCN(S(=O)(=O)c2ccc3c(c2)OCCCO3)CC1 | inactive |
| CCOc1ccc(-c2nnn(CC(=O)NCc3ccco3)n2)cc1OCC | inactive |
